Literature values in paper PMC9501548, “Synthesis of Potential Antiviral Agents for SARS-CoV-2 Using Molecular Hybridization Approach” (Molecules, 2022).

System: RAW264.7 cells
Set-up: method as in PMID 34395311
Details: standard reference, against RAW264.7 cells; cited from earlier work

In the case of `CCC(CC)COC(=O)[C@H](C)N[P@](=O)(OC[C@H]1O[C@@](C#N)(c2ccc3c(N)ncnn23)[C@H](O)[C@@H]1O)Oc1ccccc1` [Remdesivir], the CC50 is listed as 58.1 µM.
